# Measured values taken from PubChem BioAssay AID1508624 (National Center for Advancing Translational Sciences (NCATS), 2021).
# Screen size: about 48,000 compounds; about 120 (0.25%) were called active. Inconclusive results (about 4%) are left out. The call rests on the fitted dose curve; in most records, active means well fitted activation curve with a large enough effect; inconclusive means small, poorly fitted or top-dose-only effect, or another doubt; inactive means no such curve, though single readings can be large or run the other way. Some of the results follow.
# Test: Primary qHTS for Identification of Small Molecule Activators of Huntingtin-Antisense Promoter Activity; further: nearly all actives have a fitted effect of over 55% in size
# Conditions: HEK293 HTT-AS promoter firefly luciferase reporter, 24 h; series mostly up to 57.5 µM; activity change, positive = activation: at the top concentration
# How it was run: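 Luminescence was read after Dual-Glo reagent and a 10 min room-temperature incubation. Values were normalized to vehicle (0% activity) and zero RLU (-100% activity). Reporter HEK293 cells had been exposed to compounds (up to 57.5 uM final) for 24 h.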
# Potency means the concentration at half of the fitted maximal effect.
SMILES,"activity change, positive = activation",Potency
Cc1cccc(Cn2c(CN3CCC(C(=O)NC(C)C)CC3)cc3ccccc32)c1,inactive: -22.4%,–
CCOc1ccc(CNC(=O)c2cc3c(=O)oc4ccc(C)cc4c3s2)cc1,inactive: 5.91%,–
COc1ccc(C2C(C(=O)Nc3ccccc3)=C(C)Nc3nc(-c4ccc(Cl)cc4)nn32)cc1 (stereo not drawn),inactive: -60.7%,–
Cc1ccc(NC(=O)CSCc2cc(=O)c3ccccc3[nH]2)c(C)c1,inactive: -22.1%,–
Cc1ccccc1CNCCCSc1nnnn1C,inactive: -2.21%,–
COc1ccc(Cn2c(CO)cnc2SCc2ccccc2)cc1,inactive: 6.42%,–
O=C(COCc1cc(-c2ccc(F)cc2)on1)Nc1cccc(C(F)(F)F)c1,inactive: -6.48%,–
CCCOc1ccc(C2C(=O)N(C3CCCCC3)CC(=O)N2C2CCCCC2)cc1OC (stereo not drawn),inactive: -5.17%,–
COc1ccc(-c2cn3c(n2)sc2cc(C(=O)NCCCN4CCN(C)CC4)ccc23)cc1,inactive: -16.4%,–
Cc1ccc(-n2c(=O)c3c(C)c(C(=O)N(C)C)sc3n(Cc3ccccc3C)c2=O)cc1C,inactive: 3.34%,–
Cc1cccc(Nc2nc(-c3ccccc3)nc3ccccc23)c1,inactive: -29.9%,–
CCOc1ccc(-c2cn3c(n2)sc2cc(C(=O)NC(C)C45CC6CC(CC(C6)C4)C5)ccc23)cc1 (stereo not drawn),inactive: 5.71%,–
CC1CCN(C(=O)Cn2cc(SCC(=O)NCc3ccccc3)c3ccccc32)CC1,inactive: -32.4%,–
CCOc1ccc(C(c2c(O)cc(C)n(Cc3ccco3)c2=O)N2CCN(C)CC2)cc1 (stereo not drawn),inactive: 5.18%,–
CCCCNc1ccc(C(=O)OCCOCCOCCOCCOCCOCCOCCOCCOCCOC)cc1,inactive: -48.8%,–
CCc1nnc(NC(=O)c2nc(SCc3cccc(C)c3)ncc2Cl)s1,inactive: -20.9%,–
Cc1cc([C@@H](C)Nc2ccccc2C(=O)O)c2nc(N3CCOCC3)cc(=O)n2c1,"inactive: -32.1% [at 116 µM, percent change from vehicle, -100% = no light]",–
CCC(Sc1nnc(-c2ccc(F)cc2)c(-c2ccc(F)cc2)n1)C(=O)NC1CCCC1 (stereo not drawn),inactive: -13.5%,–
CC(Nc1oc(-c2ccc(COc3ccccc3)o2)nc1C#N)c1ccccc1 (stereo not drawn),inactive: -15.4%,–
Cc1cccc(-n2ncc3c(NCCOCCO)ncnc32)c1,–,active: 3.98 µM
COc1cccc(N2CC(NC(=O)/C=C\c3ccccc3)CC2=O)c1 (stereo not drawn),inactive: -3.46%,–
CCC(=O)N1CCc2cc(S(=O)(=O)CCC(=O)Nc3cc(Cl)ccc3OC)ccc21,inactive: -8.02%,–
O=C(CSc1nc2c([nH]c3ccccc32)c(=O)n1-c1ccccc1F)Nc1cccc(Cl)c1,inactive: -25.3%,–
CC(C)CC(=O)NC1CC(=O)N(c2ccc3c(c2)OCCO3)C1 (stereo not drawn),inactive: -16.8%,–

SMILES,"activity change, positive = activation",Potency
COc1cc2nccc(Oc3ccc(NC(=O)C4(C(=O)Nc5ccc(F)cc5)CC4)cc3)c2cc1OC,inactive: -26%,–
CN(Cc1ccccc1)c1nc2c(S(=O)(=O)c3cccc(Cl)c3)nnn2c2ccsc12,inactive: -19.4%,–
CCCCNC(=O)CSc1nc2cc3c(cc2c(=O)n1CCCC(=O)NCc1ccc(OC)cc1)OCO3,inactive: -11.2%,–
COC(=O)c1ccccc1NC(=O)NCc1ccc2c(c1)CCN2C(=O)c1ccccc1,inactive: -31.6%,–
O=C1CN(C(=O)c2ccc(S(=O)(=O)N3CCCC3)cc2)C(c2ccc(F)cc2)c2cc(Br)ccc2N1 (stereo not drawn),inactive: -37.2%,–
CCC1CN(S(=O)(=O)c2cc(-c3cc(C)no3)ccc2OC)c2cc(Cl)ccc2O1 (stereo not drawn),inactive: -34.5%,–
Cc1ccc2c(c1)N(C(=O)N1CCC(C(=O)Nc3cccc(F)c3)CC1)CCO2,inactive: -27.2%,–
O=S(=O)(NCCc1csc2nc(-c3ccc(Cl)cc3)nn12)c1cccs1,inactive: -38.8%,–
COc1cc(Nc2nc3c(S(=O)(=O)c4ccccc4)nnn3c3ccc(Cl)cc23)cc(OC)c1,inactive: 1.24%,–
O=c1c2oc3ccccc3c2n(Cc2ccccc2Cl)c(=O)n1Cc1ccc2c(c1)OCO2,inactive: -10.6%,–
CCc1ccccc1NC(=O)CN(c1cc(C(F)(F)F)ccc1Cl)S(=O)(=O)c1ccccc1,inactive: -49.7%,–
COc1ccccc1Nc1cc(C(=O)NCCCN(C)C2CCCCC2)c2ccccc2n1,inactive: -37.5%,–
Cc1ccc2c(c1)N(C(=O)CCC(=O)NCc1ccccc1F)CC(C)O2 (stereo not drawn),inactive: -13.5%,–
O=C(COc1ccc(Cl)cc1)OCc1cc(=O)n2nc(C3CCCCC3)sc2n1,inactive: 7.18%,–
CCOC(=O)c1ccc2c(c1)N(Cc1cc(C)ccc1C)C(=O)c1ccccc1S2(=O)=O,inactive: -28.3%,–
Cc1cc(C)cc(NC(=O)[C@H]2O[C@@H]3OC(C)(C)O[C@@H]3[C@H]3OC(C)(C)O[C@H]32)c1,inactive: -5.88%,–
CCc1ccccc1Nc1sc(C(=O)c2ccccc2)c(N)c1S(=O)(=O)c1ccccc1,inactive: -28.7%,–
CCCCN(CC)C(=O)CSc1nc2c(sc3ccccc32)c(=O)n1CCc1ccccc1,inactive: -8.65%,–
CN(C)C(=O)c1ccc(S(=O)(=O)NCc2ccc(Cl)cc2)s1,inactive: -23.2%,–
CCc1ccccc1NC(=O)Cn1c(=O)n(-c2ccc(C)cc2)c(=O)c2cc(OC)c(OC)cc21,inactive: -6.87%,–
O=C(O)/C=C/c1ccc(Cn2ccnc2)cc1,inactive: -7.77%,–
CCN(CCCNC(=O)Cn1ncc2c([nH]c3ccccc32)c1=O)c1cccc(C)c1,inactive: -20.1%,–
O=C(NO)c1ccccc1,"inactive: -16.5% [at 116 µM, percent change from vehicle, -100% = no light]",–
COC(=O)c1scc(-c2ccc(C)cc2)c1S(=O)(=O)N1CCN(c2cccc(Cl)c2)CC1,inactive: -23.9%,–
